Laboratory results taken from patent US9809653B2, “Anti-LAMP1 antibodies and antibody drug conjugates, and uses thereof” (SANOFI, priority 2012, dated 2017).

What was measured:
[1] = target: T1, recombinant human LAMP1 (29-382 of SEQ ID NO: 28) (Homo sapiens, UniProt P11279); assay: ELISA on recombinant human LAMP1; type: binding; conditions: chimer and humanized mAbs (Table 27)
T1 construct: made in house; host or cells: HEK293 (293-F), transient expression, IMAC-purified
T1 sequence (P11279 with tags, fused parts or gaps): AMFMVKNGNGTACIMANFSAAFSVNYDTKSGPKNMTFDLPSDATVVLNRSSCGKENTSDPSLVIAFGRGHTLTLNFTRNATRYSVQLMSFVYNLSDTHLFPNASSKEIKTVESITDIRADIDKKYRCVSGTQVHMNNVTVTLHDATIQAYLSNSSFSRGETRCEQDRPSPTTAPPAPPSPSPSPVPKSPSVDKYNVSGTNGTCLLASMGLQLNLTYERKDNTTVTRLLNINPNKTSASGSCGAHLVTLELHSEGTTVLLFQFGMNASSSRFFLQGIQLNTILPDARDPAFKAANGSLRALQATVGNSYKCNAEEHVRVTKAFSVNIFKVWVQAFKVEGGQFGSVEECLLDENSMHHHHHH

HCT116 huLAMP1 clones = assay: In vitro ADCP with human macrophages, flow cytometry; type: cell-based
Procedure: ADCP activity was evaluated using HCT116 huLAMP1 clones with different LAMP1 antigen densities as target cells and human macrophages as effector cells. HCT116 huLAMP1 clones were labeled by PKH67 fluorescent dye, macrophages were labeled by CD14-PC7 fluorescent dye.
From isolated PBMC and according to Miltenyi monocytes cell isolation kit protocol (130-050-201, Miltenyi Biotech). Cells labeled by CD14-MicroBead were isolated using the positive selection program of the autoMACS Pro Separator (Milteny Biotech). Collected fraction (containing monocytes cells) were suspended in 13.6 mL of RPMI-1640 supplemented with 10% fetal bovine serum, washed once (centrifugation at 400 g for 10 min) and suspended at a final concentration of 10^6 cells/mL in 64 mL of RPMI-1640 supplemented with 10% fetal bovine serum, 1% of heat inactivated human serum (AB; #14-490E), 2 mM of L-glutamine and 50 ng/mL of GM-CSF (Miltenyi Biotech; #130-093-866).
The 64 mL of isolated monocytes were added to T75 flasks (NUNC; #I56472), 10 mL per flasks. Flasks were put in a 37° C. 5% CO2 incubator where cells were allowed to adhere for 8 days. […]
Samples were analyzed using a MACSQUANT apparatus. Phagocytosis was determined as double-labeled cells (PKH67 positive and PC7 positive cells).

B1: huMAb1_negA: negative control of huMAb1_1 with mutations VL1_36A-95A and VH1_101A (antibody, listed as Homo sapiens)
heavy: QVQLVQSGAEVKKPGSSVKVSCKASGYIFTNYNIHWVKKSPGQGLEWIGAIYPGNGDAPYSQKFQGKATLTADTSTSTTYMELSSLRSEDTAVYYCVRANWDVAFAYWGQGTLVTVSS[not shown - human IgG1 constant region with D265A (EU numbers)]
light: DIQMTQSPSSLSASVGDRVTITCKASQDIDRYMAWAQDKPGKAPRLLIHDTSTLQSGVPSRFSGSGSGRDYTLTISNLEPEDFATYYCLQYDNLATFGGGTKVEIKRTVAAPSVFIFPPSDEQLKSGTASVVCLLNNFYPREAKVQWKVDNALQSGNSQESVTEQDSKDSTYSLSSTLTLSKADYEKHKVYACEVTHQGLSSPVTKSFNRGEC
modifications: Antibody fragment
EC50 (nM) hLAMP1 [1]: No binding detected
in vitro ADCP (HCT116 huLAMP1 clones): did not induce any ADCP
